The values that follow come from ChEMBL document CHEMBL4888484, “Replenishing the malaria drug discovery pipeline: Screening and hit evaluation of the MMV Hit Generation Library 1 (HGL1) against asexual blood stage Plasmodium falciparum ,using a nano luciferase reporter read-out” (2022).

What is called % Inhibition is the drop in the measured response relative to a control, in per cent.

SMILES strings stand for the structures. About 410 (8.5%) of roughly 4,800 compounds showed an effect of 50% or more. The list shows a part of the results.

This assay relates to Plasmodium falciparum. Nature of the assay: Confirmatory screen in NF54 pLDH assay, in single point, at 2uM, 72h. The assay is classed as functional, Erythrocyte. Particulars: timepoint 72 hour.
For `CCCC[C@H](CC)C(=O)Nc1cc(C)ccn1`, the “% Inhibition” value came out at 5%.

On to `Cc1c(S(=O)(=O)N2CCN(C(=O)c3ccc(F)cc3)CC2)cnn1C(F)F`, for which the “% Inhibition” value is 4%.

In the case of `CNc1nc(NCCc2ccccc2)nc2ccccc12`, the “% Inhibition” value turned out to be 92%.

For the molecule `Cc1nn(C)c(NC(=O)c2ccc(C(C)(C)C)cc2)c1C1=CCCCC1`, the “% Inhibition” value was -5%.

As to `Cc1cc(C(F)(F)F)nn2cnnc12`, the “% Inhibition” value is -18%.

As for `Cc1ccc(F)cc1S(=O)(=O)N1CC[C@]2(CCN(c3cccnc3)C2)C1`, the “% Inhibition” value is on record as -20%.

On to `Cc1ccccc1NC(=O)Cc1nnc(N)s1`, for which the “% Inhibition” value is on record as -4%.

As to `COCCN1CCc2c(C)nc3c(-c4ccc(OC)c(OC)c4)cnn3c21`, the “% Inhibition” value was found to be 19%.

Take `O=C(Nc1ccn(Cc2cccc(Cl)c2)n1)c1nn2cccnc2c1Cl`: the “% Inhibition” value is recorded as -24%.

On to `Cc1c(NC(=O)c2ccccc2-c2ccccc2)ccc(N2CCCC2=O)c1NC(=O)c1ccccc1-c1ccccc1`, for which the “% Inhibition” value is on record as -15%.

As for `CNC(=O)CNC(=O)c1cccc(Cl)c1`, the “% Inhibition” value was 12%.

In the case of `O=C(c1cc2ncccn2n1)N1CCc2ccccc2C1`, the “% Inhibition” value was found to be 11%.

Turning to `CCc1ccc(CN2C(=O)c3c(C(=O)OC)ncn3C[C@@]2(C)C(=O)NC2CCCC2)cc1`, the “% Inhibition” value stood at 13%.

On to `Cc1cc(C(=O)N[C@@H](C)c2nc(-c3cccnc3)cs2)cc(O)n1`, for which the “% Inhibition” value is on record as 38%.

With `C[N+]1(CCCC(=O)c2ccc3c(c2)OCCO3)CCC(c2ccccc2)C1` (stereo unspecified), the “% Inhibition” value is listed as 46%.

`CCc1ccc(-c2n[nH]c3c2cnc2ccc(OC)cc23)cc1`: the “% Inhibition” value was found to be 7%.

On to `CCCC(=O)Nc1ccc(N2CCN(CC(=O)N(CC)CC)CC2)cc1C(=O)O`, for which the “% Inhibition” value is recorded as 3%.

On to `O=C1CC(C(=O)N2CCCCC2c2nc(-c3ccccc3)c[nH]2)CN1` (stereo unspecified), for which the “% Inhibition” value is given as 16%.

On to `CCc1ccc(NC(=O)Cn2c(=O)ncc3cc(S(=O)(=O)N4CCCC[C@@H]4C)ccc32)cc1`, for which the “% Inhibition” value is 11%.

As to `O=S(=O)(c1ccc(Cl)cc1)N1CCC(c2cc(-c3cccc(C(F)(F)F)c3)[nH]n2)CC1`, the “% Inhibition” value is given as 0%.

Turning to `C[C@H]1CC(C)(C)N(C)c2ccc(/C=C/c3c(C(=O)O)cnc4ccnn34)cc21`, the “% Inhibition” value is recorded as 15%.

For the molecule `CCCn1nc(-n2cnnc2)c(NC(=O)c2ccc3c(c2)OCO3)c1C`, the “% Inhibition” value stood at 7%.

On to `CC[C@](C)(NC(=O)Nc1cncnc1OC)c1nc(C)cs1`, for which the “% Inhibition” value amounted to 12%.

As for `O=c1ccc(F)cn1Cc1csc(C2CCCC2)n1`, the “% Inhibition” value is 5%.

For `Cn1ccc(C(=O)Nc2ccc(-c3ccccc3)cn2)cc1=O`, the “% Inhibition” value is listed as -11%.

`Cc1ccc2nc(O)c3nnc(C)n3c2c1`: the “% Inhibition” value is 15%.

On to `O=S(=O)(Nc1nncs1)c1cccs1`, for which the “% Inhibition” value is -10%.

Consider `CC(C)(C)c1ccc(C(=O)N[C@H]2C[C@@H]3CC[C@H]2C3)cc1`, for which the “% Inhibition” value is reported as 10%.

Consider `Cc1[nH]ccc(=O)c1Cc1c(Cl)cccc1Cl`, for which the “% Inhibition” value is reported as -8%.

Regarding `O=c1nc2n(nc1-c1ccccc1)C1(CCC1)Nc1ccccc1-2`, the “% Inhibition” value is given as 60%.

For `c1ccc(CC2=NCCc3ccccc32)cc1`, the “% Inhibition” value was 44%.

In the case of `Cc1ncc(CN(C)[C@@H](C)C(=O)Nc2ccc3c(c2)OC2(CCCCC2)O3)s1`, the “% Inhibition” value worked out at 10%.

As for `O=C(Nc1ccc2c(c1)OCCO2)N1CCC(O)CC1`, the “% Inhibition” value was 7%.

Consider `O=C(CN1CCC2(CC1)NC(c1ccc(OC(F)(F)F)cc1)=NO2)NCc1ccc(F)cc1`, for which the “% Inhibition” value is recorded as 8%.

As to `CN1CCN(c2ccc(F)cc2C(=O)NCc2ccc3cnn(C)c3c2)CC1`, the “% Inhibition” value was -23%.

Consider `Oc1cc(-c2ccc3ccccc3c2)[nH]n1`, for which the “% Inhibition” value is reported as -6%.

As for `O=C(OCC(=O)N1CCN(Cc2ccccc2)CC1)c1nccc2ccccc12`, the “% Inhibition” value is on record as 10%.

Regarding `CC1CCCC(C)N1C(=O)CN(C)c1cccc2cccnc12` (stereo unspecified), the “% Inhibition” value was 4%.

Take `COc1ccc(-n2nc(C(=O)N3CCN(c4ncccn4)CC3)c(=O)cc2OC)cc1`: the “% Inhibition” value is on record as -29%.

Regarding `O=c1c2cc(F)c(F)cc2ncn1C[C@@H](O)CC1CCCC1`, the “% Inhibition” value amounted to 9%.

In the case of `CN(CC[C@H](O)C(F)(F)F)Cc1ccccc1`, the “% Inhibition” value was -3%.

With `CCc1ccc(CN2C(=O)c3c(C(=O)OC)ncn3C[C@@]2(C)C(=O)NC2CCCCCC2)cc1`, the “% Inhibition” value amounted to 14%.

Take `COc1cc(C(=O)NCCN2CCOCC2)cc2occc12`: the “% Inhibition” value was determined as 1%.

Regarding `Cc1ccc(N2C(=O)C3C4C=CC(C4=C4CCCC4)C3C2=O)c(C)c1` (stereo unspecified), the “% Inhibition” value is listed as -11%.

`CC1CC(C)(C)CCC1NC(=O)NC1CCN(C)C1=O` (stereo unspecified): the “% Inhibition” value is given as -11%.

`Cc1cc(C)cc(Nc2nc(C)cc(=O)n2CC(=O)Nc2ccc(C)cc2Br)c1`: the “% Inhibition” value is on record as -8%.

As for `Cc1ccc(C(=O)NC2c3ccccc3CCC2n2ccnc2)c(=O)[nH]1` (stereo unspecified), the “% Inhibition” value is on record as 0%.

For the molecule `CC(C)(C)NC(=O)C1CCN(C[C@@H]2CC=CCC2)CC1`, the “% Inhibition” value stood at 10%.

In the case of `CN(CCCNC(=O)C(=O)Nc1ccn(C)n1)c1cccc(F)c1`, the “% Inhibition” value was determined as 10%.

Regarding `Cc1nnc(NC(=O)[C@H](C)c2ccc(-c3ccccc3)c(F)c2)s1`, the “% Inhibition” value is -16%.

In the case of `CCN1CCC(N(C)C(=O)Cc2csc(-c3cccnc3)n2)CC1`, the “% Inhibition” value was -8%.

As to `Cc1ccc(S(=O)(=O)Cc2nc(-c3ccc(C(=O)NCc4ccccc4C)cc3)oc2C)cc1`, the “% Inhibition” value is -23%.

For `CC(C)(NC(=O)OCc1ccccc1)/C(N)=N/O`, the “% Inhibition” value amounted to 4%.

With `CCc1ccc(C2CCN(C(C(=O)O)c3cccnc3)C2)cc1` (stereo unspecified), the “% Inhibition” value is listed as -4%.

On to `Cc1ccc(NC(=O)c2nnn(CC(=O)Nc3ccc4c(c3)OCO4)c2C)cc1F`, for which the “% Inhibition” value amounted to 6%.

On to `O=C(Nc1ccccc1)Nc1nnc[nH]1`, for which the “% Inhibition” value is 10%.

On to `COCc1cc(=O)n(CC(=O)Nc2ccc(OC)cc2)c(N2CCCC2)n1`, for which the “% Inhibition” value is on record as -9%.

Turning to `COc1ccccc1Nc1c(-c2cccs2)nc2ccccn12`, the “% Inhibition” value worked out at 3%.

With `COCCN1CCCCc2cc(C(=O)NC[C@H]3CCN(CC(C)C)C3)sc21`, the “% Inhibition” value is listed as -9%.

In the case of `Cc1cc(C)cc(Nc2nc(C)cc(=O)n2CC(=O)N2CCN(c3ccc(F)cc3)CC2)c1`, the “% Inhibition” value is reported as -6%.

With `O=C(NCc1ncc[nH]1)C1(Cc2nc3ccccc3[nH]2)CCCC1`, the “% Inhibition” value stood at 5%.

In the case of `O=C(CCn1nc(-c2ccc3c(c2)OCO3)ccc1=O)NC1CCCCC1`, the “% Inhibition” value is given as -6%.

On to `Clc1ccc(-c2noc(CN(Cc3cccs3)Cc3cccs3)n2)cc1`, for which the “% Inhibition” value is 6%.

For the molecule `CCOn1c(-c2ccc(F)cc2)nc2c1OC=NN2OCc1ccccc1`, the “% Inhibition” value came out at 7%.

Consider `CCNC(=O)N[C@H]1CO[C@H]2[C@@H]1OC[C@@H]2Nc1nccc(-c2ccc(-c3ccccc3)cc2)n1`, for which the “% Inhibition” value is recorded as 9%.

As to `C[C@@H](C1CC1)N(C)S(=O)(=O)Cc1cc(Cl)cc(Cl)c1`, the “% Inhibition” value was determined as 2%.
